According to the antibiotic and cytotoxicity screens of Wong et al. (2023):
The other results are listed elsewhere or left out.

test system: S. aureus RN4220; assay: growth inhibition call (relative growth <= 0.2); conditions: 50 µM

Growth inhibition call, inactive:
CC(=O)Nc1ccc(C(C)C)c(C)c1
CN(C)CCCNC(=O)C[C@@H]1CC[C@@H]2[C@@H](COc3ccc(NC(=O)NC4CCCC4)cc3C(=O)N2C)O1
C[C@@H]1CN([C@H](C)CO)C(=O)c2c(c3ccccc3n2C)-c2ccccc2CO[C@H]1CN(C)Cc1ccc2c(c1)OCO2
C[C@H]1CN([C@@H](C)CO)C(=O)c2cc(NC(=O)C3CCCCC3)ccc2O[C@@H]1CN(C)Cc1ccc(-c2ccccc2)cc1
CCO[C@@H]1OC(C(=O)N2CCN(Cc3ccccc3)CC2)=C[C@H](c2ccc(C(F)(F)F)cc2)[C@H]1CCCOC(=O)NCCCCCC(=O)NO
C[C@@H]1CN([C@@H](C)CO)C(=O)c2cccc(NC(=O)c3ccc(-c4nccs4)cc3)c2O[C@@H]1CN(C)Cc1ccc(-c2ccccc2)cc1
C[C@@H]1CN([C@@H](C)CO)C(=O)c2cccc(NC(=O)c3ccncc3)c2O[C@@H]1CN(C)Cc1ccc(Oc2ccccc2)cc1
C[C@@H]1CCCCO[C@H](CN(C)CC2CCCCC2)[C@H](C)CN([C@H](C)CO)C(=O)c2cc(NS(=O)(=O)c3cccs3)ccc2O1
CCCN(C)C[C@H]1OCCCC[C@@H](C)Oc2ccc(NC(=O)CCC(F)(F)F)cc2C(=O)N([C@H](C)CO)C[C@@H]1C
